To fix the notation:
B1: PhoQ; a variant is named by its letters at X, in order, P23837 (parent)
chain: MKKLLRLFFPLSLRVRFLLATAAVVLVLSLAYGMVALIGYSVSFDKTTFRLLRGESNLFYTLAKWENNKLHVELPENIDKQSPTMTLIYDENGQLLWAQRDVPWLMKMIQPDWLKSNGFHEIEADVNDTSLLLSGDHSIQQQLQEVREDDDDAEMTHSVAVNVYPATSRMPKLTIVVVDTIPVELKSSYMVWSWFIYVLSANLLLVIPLLWVAAWWSLRPIEALAKEVRELEEHNRELLNPATTRELTSLVRNLNRLLKSERERYDKYRTTLTDLTHSLKTPLXXLQXXLRSLRSEKMSVSDAEPVMLEQISRISQQIGYYLHRASMRGGTLLSRELHPVAPLLDNLTSALNKVYQRKGVNISLDISPEISFVGEQNDFVEVMGNVLDNACKYCLEFVEISARQTDEHLYIVVEDDGPGIPLSKREVIFDRGQRVDTLRPGQGVGLAVAREITEQYEGKIVAGESMLGGARMEVIFGRQHSAPKDE

The source of these data is a collection of fitness landscapes (doi:10.1126/science.1257360).

Some of the results follow.

The variants in this test derive from B1. In words: enrichment ratio after two sorts for PhoP signalling (ratio (wild type AVST 3.29)); higher = more functional. The following applies: with PhoP (E. coli).
As for KISG, the enrichment ratio was ≤ 0.25.
Consider LVSW, for which the enrichment ratio is ≤ 0.25.
The value for WKNS was ≤ 0.25; that for DIIH was ≤ 0.25; that for LSKR was ≤ 0.25.
Turning to QINM, the enrichment ratio was ≤ 0.25.
On to IKWW, for which the enrichment ratio is ≤ 0.25.
In the case of ANTD, the enrichment ratio is ≤ 0.25.
The value for ILIS was ≤ 0.25; that for KIHH was ≤ 0.25; that for QAIS was ≤ 0.25.
For AEMA, the enrichment ratio turned out to be 25.6.
The value for IDIC was ≤ 0.25.
Consider NQSM, for which the enrichment ratio is ≤ 0.25.
The value for WMGF was ≤ 0.25.
Take TMRF: the enrichment ratio is ≤ 0.25.
In the case of WYAK, the enrichment ratio is ≤ 0.25.
On to TSDM, for which the enrichment ratio turned out to be 6.42.
As to SCAV, the enrichment ratio is 6.67.
The figure for NCKP is ≤ 0.25; for VQCP it is ≤ 0.25; for NCIW it is ≤ 0.25.
The value for DDDL was ≤ 0.25; that for LAFN was 0.877.
The value for WTFW was ≤ 0.25; that for FILN was 4.41; that for KKPL was ≤ 0.25.
For the variant DWRG, the enrichment ratio was ≤ 0.25.
The figure for LYID is ≤ 0.25; for TCPF it is ≤ 0.25.
The value for VSFV was 0.649; that for AEIK was ≤ 0.25; that for VLAF was ≤ 0.25.
Take MRMG: the enrichment ratio is ≤ 0.25.
Turning to NESG, the enrichment ratio is ≤ 0.25.
Consider NDYC, for which the enrichment ratio was ≤ 0.25.
On to QMIP, for which the enrichment ratio is ≤ 0.25.
The figure for LHSR is ≤ 0.25; for EHFN it is ≤ 0.25.
In the case of FCAH, the enrichment ratio was ≤ 0.25.
On to PFRC, for which the enrichment ratio was ≤ 0.25.
The figure for SCQC is ≤ 0.25; for AMCV it is 5.84; for GVHF it is ≤ 0.25.
As for EGTS, the enrichment ratio was ≤ 0.25.
As for HMPY, the enrichment ratio was ≤ 0.25.
As to RRRL, the enrichment ratio was ≤ 0.25.
As to KYIH, the enrichment ratio is ≤ 0.25.
As for RRGC, the enrichment ratio was ≤ 0.25.
For FDLM, the enrichment ratio is ≤ 0.25.
For LQHA, the enrichment ratio is ≤ 0.25.
Consider MDNT, for which the enrichment ratio was ≤ 0.25.
Take KERR: the enrichment ratio is ≤ 0.25.
As for PVAS, the enrichment ratio was ≤ 0.25.
For the variant QPGQ, the enrichment ratio is ≤ 0.25.
In the case of NVPT, the enrichment ratio is ≤ 0.25.
With GGGQ, the enrichment ratio is ≤ 0.25.
Consider TSHI, for which the enrichment ratio was 9.1.
With LYLF, the enrichment ratio was ≤ 0.25.
Take WGSD: the enrichment ratio was ≤ 0.25.
As for DFFE, the enrichment ratio was ≤ 0.25.
In the case of SIMY, the enrichment ratio turned out to be 3.34.
Consider RRWW, for which the enrichment ratio is ≤ 0.25.
In the case of QVFA, the enrichment ratio is ≤ 0.25.
As for LIPF, the enrichment ratio was ≤ 0.25.
Turning to RHTI, the enrichment ratio is ≤ 0.25.
With FMQE, the enrichment ratio is ≤ 0.25.
As to CISC, the enrichment ratio was ≤ 0.25.
The figure for KPAH is ≤ 0.25; for PKVN it is ≤ 0.25.
Regarding LERF, the enrichment ratio is ≤ 0.25.
For the variant NWCA, the enrichment ratio is ≤ 0.25.
With KNGG, the enrichment ratio is ≤ 0.25.
For the variant AEPS, the enrichment ratio is ≤ 0.25.
As for GLWK, the enrichment ratio was ≤ 0.25.
For APFM, the enrichment ratio was ≤ 0.25.
Take CNFH: the enrichment ratio is ≤ 0.25.
With RFLG, the enrichment ratio was ≤ 0.25.
Take MEYN: the enrichment ratio came out at 2.87.
As to MATL, the enrichment ratio stood at 7.59.
The value for DWWC was ≤ 0.25; that for EGWA was ≤ 0.25.
As for YFLP, the enrichment ratio is ≤ 0.25.
On to RWGQ, for which the enrichment ratio is ≤ 0.25.
As for DCPY, the enrichment ratio is ≤ 0.25.
For the variant MAAK, the enrichment ratio was ≤ 0.25.
Turning to QHQD, the enrichment ratio was ≤ 0.25.
As for GVHR, the enrichment ratio is ≤ 0.25.
Take AVRH: the enrichment ratio was ≤ 0.25.
Consider PYNQ, for which the enrichment ratio is ≤ 0.25.
For IFHK, the enrichment ratio is ≤ 0.25.
The figure for VWCW is ≤ 0.25; for MSAI it is 9.81; for SMMG it is 9.58.
In the case of QKIP, the enrichment ratio was ≤ 0.25.
RDRE: the enrichment ratio is ≤ 0.25.
Take MNQL: the enrichment ratio was ≤ 0.25.
On to WPYD, for which the enrichment ratio is ≤ 0.25.
For the variant MSKL, the enrichment ratio is ≤ 0.25.
The value for LNPW was ≤ 0.25; that for YVLK was ≤ 0.25.
The figure for WDAG is ≤ 0.25.
For RCKP, the enrichment ratio was ≤ 0.25.
Take ELLT: the enrichment ratio was ≤ 0.25.
In the case of AWMY, the enrichment ratio is ≤ 0.25.
In the case of VYAY, the enrichment ratio was ≤ 0.25.
As for PLRQ, the enrichment ratio was found to be 1.07.
The value for DQRF was ≤ 0.25; that for IKLP was ≤ 0.25; that for NEKF was ≤ 0.25.
For the variant QQAE, the enrichment ratio is ≤ 0.25.
Consider DCLV, for which the enrichment ratio is ≤ 0.25.
As to HHCE, the enrichment ratio is ≤ 0.25.
With IELA, the enrichment ratio is ≤ 0.25.
Turning to YNFF, the enrichment ratio was ≤ 0.25.
For the variant RKCR, the enrichment ratio is ≤ 0.25.
Regarding HWFK, the enrichment ratio is ≤ 0.25.
Take WLAG: the enrichment ratio was ≤ 0.25.
The figure for MTIE is ≤ 0.25; for EPSG it is ≤ 0.25.
The figure for WYGD is ≤ 0.25.
With IGCH, the enrichment ratio amounted to 0.982.
Regarding WVAP, the enrichment ratio is ≤ 0.25.
In the case of RMLS, the enrichment ratio is ≤ 0.25.
Consider YWCN, for which the enrichment ratio is ≤ 0.25.
The figure for FHVH is ≤ 0.25; for KDCL it is ≤ 0.25; for KNEK it is ≤ 0.25.
The value for LWWR was ≤ 0.25; that for GLKT was ≤ 0.25; that for YTCK was ≤ 0.25.
The figure for IGFQ is ≤ 0.25; for QSFP it is ≤ 0.25.
Turning to DRAC, the enrichment ratio was ≤ 0.25.
LCPS: the enrichment ratio is ≤ 0.25.
Take MRYD: the enrichment ratio is ≤ 0.25.
With FEST, the enrichment ratio was ≤ 0.25.
Consider ATCP, for which the enrichment ratio was ≤ 0.25.
Regarding NFLM, the enrichment ratio is ≤ 0.25.
Consider WFPD, for which the enrichment ratio was ≤ 0.25.
On to HRKF, for which the enrichment ratio is ≤ 0.25.
QPKG: the enrichment ratio was ≤ 0.25.
Turning to AIHC, the enrichment ratio was found to be 10.3.
Turning to LKVC, the enrichment ratio is ≤ 0.25.
Take ECKH: the enrichment ratio is ≤ 0.25.
Consider RHWK, for which the enrichment ratio was ≤ 0.25.
FKDS: the enrichment ratio is ≤ 0.25.
The figure for KLCK is ≤ 0.25.
On to GEMW, for which the enrichment ratio was ≤ 0.25.
On to PQSS, for which the enrichment ratio was ≤ 0.25.
MRKK: the enrichment ratio is ≤ 0.25.
For VHKG, the enrichment ratio was ≤ 0.25.
For YYKF, the enrichment ratio was ≤ 0.25.
Turning to PHEW, the enrichment ratio was ≤ 0.25.
The value for SNPK was ≤ 0.25; that for HADR was ≤ 0.25.
RCCG: the enrichment ratio was ≤ 0.25.
As for TLMK, the enrichment ratio was ≤ 0.25.
For FVHS, the enrichment ratio was ≤ 0.25.
GVGI: the enrichment ratio was ≤ 0.25.
As to ATKD, the enrichment ratio was ≤ 0.25.
Take STNE: the enrichment ratio is ≤ 0.25.
With PNLF, the enrichment ratio was ≤ 0.25.
With IAAQ, the enrichment ratio is ≤ 0.25.
The value for YMTP was ≤ 0.25.
The value for DDIK was ≤ 0.25.
With ERSI, the enrichment ratio was ≤ 0.25.
Take EFRI: the enrichment ratio was ≤ 0.25.
Regarding QLHP, the enrichment ratio is ≤ 0.25.
As to RHYT, the enrichment ratio was ≤ 0.25.
In the case of PQPN, the enrichment ratio is ≤ 0.25.
For the variant FQLR, the enrichment ratio was ≤ 0.25.
Turning to RGQY, the enrichment ratio is ≤ 0.25.
Regarding MWGI, the enrichment ratio is ≤ 0.25.
In the case of AAVI, the enrichment ratio is 2.14.
As to PDFD, the enrichment ratio is ≤ 0.25.
The value for IMND was ≤ 0.25.
Turning to YVTM, the enrichment ratio is ≤ 0.25.
Regarding QRLV, the enrichment ratio was ≤ 0.25.
As to PMMV, the enrichment ratio was ≤ 0.25.
As to IPNK, the enrichment ratio is ≤ 0.25.
For YFSS, the enrichment ratio is ≤ 0.25.
The figure for HIAM is ≤ 0.25; for KDCA it is ≤ 0.25.
With ARPC, the enrichment ratio is ≤ 0.25.
With IFER, the enrichment ratio is ≤ 0.25.
As to ICQW, the enrichment ratio is ≤ 0.25.
The value for MKAW was ≤ 0.25; that for HKFT was ≤ 0.25; that for GYKM was ≤ 0.25.
As for VNFN, the enrichment ratio is ≤ 0.25.
With TILA, the enrichment ratio was found to be 4.43.
The figure for AAHW is ≤ 0.25; for SPEQ it is ≤ 0.25; for YMQR it is ≤ 0.25.
